Experimental data published in a collection of fitness landscapes (doi:10.1016/j.celrep.2020.107928).
The full ranking holds about 81,000 sequences; the median of “one-hybrid fitness for binding NBS DNA” is about -0.1, and the highest 2% start at about 0.36. The list shows a part of the results.

B1: Caulobacter ParB omega fusion; a variant is named by its letters at X, in order, B8GW30 (parent)
chain: MESVVVGEPGMSEGRRGLGRGLSALLGEVDAAPAQAPGEQLGGSREAPIEILQRNPDQPRRTFREEDLEDLSNSIREKGVLQPILVRPSPDTAGEYQIVAGERAWRAAQRAGLKTVPIMVRELDDLAVLEIGIIENVQRADLNVLEEALSYKVLMEKFERTQENIAQTIGKSXSHVANXMRLLXLPDEVQSYLVSGELTAXHARAIAAAADPVALAKQIIEGGLSVRETEALARKAPNLSAGKSKGGRPPRVKDTDTQALESDLSSVLGLDVSIDHRGSTGTLTITYATLEQLDDLCNRLTRGI

Variants of: B1
Assay: one-hybrid fitness for binding NBS DNA (the Noc-binding site; scaled: cognate 1, non-cognate 0); higher = stronger binding
Settings: with NBS DNA site
Procedure, shortened: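 Caulobacter ParB libraries with four specificity codons randomised were screened by bacterial one-hybrid selection in the E. coli USO strain, using a HIS3 reporter whose site lies 19 bp from the promoter. Selection ran for 48 hours at 37°C on M9 lacking histidine, with 0.1 mM IPTG and 5 mM 3-AT. Plasmids were Illumina-sequenced before and after selection, three replicate libraries were pooled, and variants with under 10 reads were dropped. Fitness is the log change in each variant's read ratio to wild type, rescaled against the cognate and non-cognate sites.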

Row | Variant | one-hybrid fitness for binding NBS DNA
1 | LCKM | ≤ 0.2
2 | FGTK | ≤ 0.2
3 | TGSC | ≤ 0.2
4 | DNEY | ≤ 0.2
5 | SAHG | ≤ 0.2
6 | VILN | ≤ 0.2
7 | WQKY | ≤ 0.2
8 | FIKK | ≤ 0.2
9 | VHGS | ≤ 0.2
10 | PARQ | ≤ 0.2
11 | ALWT | ≤ 0.2
12 | RMST | 0.483
13 | HLRL | ≤ 0.2
14 | GWHT | ≤ 0.2
15 | KRQG | ≤ 0.2
16 | RAAI | ≤ 0.2
17 | RFSC | ≤ 0.2
18 | SQNW | ≤ 0.2
19 | QQKN | 0.464
20 | FRSF | ≤ 0.2
21 | YTAS | ≤ 0.2
22 | ENSY | ≤ 0.2
23 | LLMP | ≤ 0.2
24 | DPPD | ≤ 0.2
25 | INRF | ≤ 0.2

Row | Variant | one-hybrid fitness for binding NBS DNA
26 | YDQL | ≤ 0.2
27 | QAGD | ≤ 0.2
28 | ALVT | ≤ 0.2
29 | MGPF | ≤ 0.2
30 | PIST | ≤ 0.2
31 | WAIM | ≤ 0.2
32 | RQHH | ≤ 0.2
33 | PQGR | ≤ 0.2
34 | FMKT | ≤ 0.2
35 | ETTS | ≤ 0.2
36 | SSQL | ≤ 0.2
37 | GTDS | ≤ 0.2
38 | PHLA | ≤ 0.2
39 | VVEN | ≤ 0.2
40 | QPLH | ≤ 0.2
41 | NNHH | ≤ 0.2
42 | QVEW | ≤ 0.2
43 | SLWK | ≤ 0.2
44 | ALKW | ≤ 0.2
45 | REMI | ≤ 0.2
46 | KIFF | ≤ 0.2
47 | PSWT | ≤ 0.2
48 | AHAN | ≤ 0.2
49 | HACK | 0.298
50 | PFIG | ≤ 0.2

Row | Variant | one-hybrid fitness for binding NBS DNA
51 | TGMA | ≤ 0.2
52 | APPS | ≤ 0.2
53 | RKTC | 0.275
54 | LEVT | ≤ 0.2
55 | SLDP | ≤ 0.2
56 | MIEP | ≤ 0.2
57 | HGQA | ≤ 0.2
58 | SNAD | ≤ 0.2
59 | NAPD | ≤ 0.2
60 | TEFD | ≤ 0.2
61 | EHES | ≤ 0.2
62 | MPPG | ≤ 0.2
63 | HSSR | ≤ 0.2
64 | QHMD | ≤ 0.2
65 | PAKV | ≤ 0.2
66 | QLSI | ≤ 0.2
67 | LVSI | ≤ 0.2
68 | CNVR | ≤ 0.2
69 | ACSN | ≤ 0.2
70 | NNLD | ≤ 0.2
71 | ESSC | ≤ 0.2
72 | SQEV | ≤ 0.2
73 | GPMM | ≤ 0.2
74 | IMRS | ≤ 0.2
75 | HPTI | ≤ 0.2

Row | Variant | one-hybrid fitness for binding NBS DNA
76 | GRWT | ≤ 0.2
77 | RTPP | ≤ 0.2
78 | ALTS | ≤ 0.2
79 | KING | ≤ 0.2
80 | QVGD | ≤ 0.2
81 | TCNG | ≤ 0.2
82 | PCPE | ≤ 0.2
83 | NTGG | ≤ 0.2
84 | GGRW | ≤ 0.2
85 | RSAG | ≤ 0.2
86 | YGHG | ≤ 0.2
87 | QKRS | 0.677
88 | AAKR | 0.205
89 | WMVR | ≤ 0.2
90 | TIQV | ≤ 0.2
91 | FEPR | ≤ 0.2
92 | KYHG | ≤ 0.2
93 | WSPP | ≤ 0.2
94 | YLLC | ≤ 0.2
95 | SSSL | ≤ 0.2
96 | PNHL | ≤ 0.2
97 | TKDM | ≤ 0.2
98 | TKDH | ≤ 0.2
99 | RLIV | ≤ 0.2
100 | IKTN | ≤ 0.2

Row | Variant | one-hybrid fitness for binding NBS DNA
101 | YDNG | ≤ 0.2
102 | TDTF | ≤ 0.2
103 | EYDG | ≤ 0.2
104 | GGPE | ≤ 0.2
105 | YTVR | ≤ 0.2
106 | MLGG | ≤ 0.2
107 | CVKY | ≤ 0.2
108 | CMMC | ≤ 0.2
109 | PDDE | ≤ 0.2
110 | QNNY | ≤ 0.2
111 | CNLM | ≤ 0.2
112 | GCIF | ≤ 0.2
113 | NFWT | ≤ 0.2
114 | IDCY | ≤ 0.2
115 | TFRT | ≤ 0.2
116 | VDRC | ≤ 0.2
117 | VVGV | ≤ 0.2
118 | IKQG | ≤ 0.2
119 | SSYT | ≤ 0.2
120 | PQNN | ≤ 0.2
121 | KIMG | ≤ 0.2
122 | TDNW | ≤ 0.2
123 | AAYS | ≤ 0.2
124 | TNRF | ≤ 0.2
125 | YSLF | ≤ 0.2

Row | Variant | one-hybrid fitness for binding NBS DNA
126 | ILGR | ≤ 0.2
127 | NFRE | ≤ 0.2
128 | EGLT | ≤ 0.2
129 | WCGS | ≤ 0.2
130 | TGAC | ≤ 0.2
131 | VLCC | ≤ 0.2
132 | PSRL | ≤ 0.2
133 | TMTC | ≤ 0.2
134 | RQGE | ≤ 0.2
135 | VWIQ | ≤ 0.2
136 | HHIV | ≤ 0.2
137 | CWAR | ≤ 0.2
138 | APRL | ≤ 0.2
139 | AIMV | ≤ 0.2
140 | FSQC | ≤ 0.2
141 | ALNE | ≤ 0.2
142 | QLAI | ≤ 0.2
143 | QDAG | ≤ 0.2
144 | PGMQ | ≤ 0.2
145 | MVSI | ≤ 0.2
146 | TNTC | ≤ 0.2
147 | MEYL | ≤ 0.2
148 | QQYA | 0.303
149 | GLPQ | ≤ 0.2
150 | AAIT | ≤ 0.2

Row | Variant | one-hybrid fitness for binding NBS DNA
151 | WMQC | ≤ 0.2
152 | FTQF | ≤ 0.2
153 | ASTW | ≤ 0.2
154 | WTVH | ≤ 0.2
155 | RSHV | ≤ 0.2
156 | MTCT | ≤ 0.2
157 | QRAL | 0.272
158 | TLIM | ≤ 0.2
159 | DNCS | ≤ 0.2
160 | DSIQ | ≤ 0.2
161 | PQSI | ≤ 0.2
162 | LATM | ≤ 0.2
163 | HKAT | ≤ 0.2
164 | DWHG | ≤ 0.2
165 | RFPV | ≤ 0.2
166 | YTAR | ≤ 0.2
167 | RVIC | ≤ 0.2
168 | EPIG | ≤ 0.2
169 | RDTC | ≤ 0.2
170 | YRVT | ≤ 0.2
171 | ALVM | ≤ 0.2
172 | NGQK | ≤ 0.2
173 | CPSL | ≤ 0.2
174 | RWWL | ≤ 0.2
175 | PAWL | ≤ 0.2

Row | Variant | one-hybrid fitness for binding NBS DNA
176 | SHEI | ≤ 0.2
177 | TKIH | ≤ 0.2
178 | CFTK | ≤ 0.2
179 | FATM | ≤ 0.2
180 | MLQC | ≤ 0.2
181 | RLRF | ≤ 0.2
182 | KFHT | ≤ 0.2
183 | YPRA | ≤ 0.2
184 | KWTS | ≤ 0.2
185 | LMPT | ≤ 0.2
186 | HAMR | ≤ 0.2
187 | TNEY | ≤ 0.2
188 | RTKP | ≤ 0.2
189 | YTGS | ≤ 0.2
190 | YKMT | ≤ 0.2
191 | DSHV | ≤ 0.2
192 | GRPH | ≤ 0.2
193 | IYCG | ≤ 0.2
194 | THSG | ≤ 0.2
195 | KRIG | ≤ 0.2
